Laboratory results: PubChem BioAssay AID1645886 (National Center for Advancing Translational Sciences (NCATS), 2021)
Among all 16,000 compounds or so, about 260 (1.6%) were called active. Inconclusive results, whose numbers are uncertain, are shown with a selection of clear calls. Calls follow the shape of the dose curve; as a rule, active = well fitted inhibition curve with a large enough effect; inconclusive = small, poorly fitted or top-dose-only effect; inactive = no such curve, though single readings can be large or run the other way. Potencies of inconclusive entries are left out as doubtful fits.
Also: nearly all actives have a fitted effect of over 40% in size.
Potency is read from the fitted curve at half-maximal effect; tags tell the direction and shape of the fitted curve.

Each compound was assayed against Rap guanine nucleotide exchange factor 4 (Homo sapiens) (UniProt Q8WZA2) (assay: Validation qHTS for antagonist of cAMP-regulated guanine nucleotide exchange factor 4 (EPAC2)). Conditions: EPAC2 Rap1B BODIPY-GDP exchange, fluorescence; activity, negative = inhibition: at 112 µM (top of the series).
Sequence of UniProt Q8WZA2 (Q8WZA2 whole entry, looked up): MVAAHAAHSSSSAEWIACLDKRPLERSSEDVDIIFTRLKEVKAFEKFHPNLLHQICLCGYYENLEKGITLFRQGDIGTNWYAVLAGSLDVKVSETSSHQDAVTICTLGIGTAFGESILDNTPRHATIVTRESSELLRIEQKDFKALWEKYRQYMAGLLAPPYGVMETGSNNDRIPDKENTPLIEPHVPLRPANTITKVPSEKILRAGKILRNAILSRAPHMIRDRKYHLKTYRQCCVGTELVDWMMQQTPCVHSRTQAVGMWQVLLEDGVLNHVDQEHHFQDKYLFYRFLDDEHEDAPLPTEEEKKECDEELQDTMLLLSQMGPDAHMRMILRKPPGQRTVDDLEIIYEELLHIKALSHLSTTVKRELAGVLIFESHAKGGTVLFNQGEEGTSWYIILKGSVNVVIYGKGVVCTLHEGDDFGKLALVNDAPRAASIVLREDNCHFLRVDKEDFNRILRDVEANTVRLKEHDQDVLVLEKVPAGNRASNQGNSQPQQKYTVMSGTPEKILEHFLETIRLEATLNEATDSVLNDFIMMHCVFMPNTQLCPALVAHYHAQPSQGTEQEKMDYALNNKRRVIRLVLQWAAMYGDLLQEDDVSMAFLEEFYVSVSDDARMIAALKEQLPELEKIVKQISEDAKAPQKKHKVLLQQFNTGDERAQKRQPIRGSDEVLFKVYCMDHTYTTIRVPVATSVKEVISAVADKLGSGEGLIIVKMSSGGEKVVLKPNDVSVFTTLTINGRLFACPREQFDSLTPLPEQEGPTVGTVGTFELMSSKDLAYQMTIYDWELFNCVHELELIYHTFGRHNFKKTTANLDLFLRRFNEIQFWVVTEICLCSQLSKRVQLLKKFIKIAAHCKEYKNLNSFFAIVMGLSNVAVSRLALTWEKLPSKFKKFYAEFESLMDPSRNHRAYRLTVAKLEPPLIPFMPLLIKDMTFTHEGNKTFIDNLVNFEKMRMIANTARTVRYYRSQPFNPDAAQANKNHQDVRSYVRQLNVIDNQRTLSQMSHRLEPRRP
Outline: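 Normalized against a 6.5 mM cAMP agonist control, compounds were tested on 100 nM EPAC2 exchanging Rap1B-bound BODIPY-GDP (250 nM) for 50 uM GDP. Fluorescence drop (ex 480, em 540 nm) was tracked at room temperature over 30 min at 5-min intervals.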
For `Cn1cccc1C(=O)N1CCC2(CC1)CN(Cc1cc(C(F)(F)F)cc(C(F)(F)F)c1)C2`, the Potency was inconclusive [inhibitor, full curve, poor fit]. With `COc1ccccc1CCn1c(=O)c(-c2ccc(Cl)cc2)nc2cncnc21` the Potency was inconclusive [inhibitor, partial curve, poor fit]. With `COc1ccc(CN2CCOc3c(O)cc(-c4cc(C)c5ccc(F)cc5n4)cc3C2)c(O)c1` the Potency was inconclusive [inhibitor, partial curve, poor fit]. For `COc1ccccc1C(=O)N[C@@H]1c2ccccc2C2(CCN(Cc3nc(C(C)C)cs3)CC2)[C@H]1O`, the Potency was inconclusive [inhibitor, single point]. With `O=C(c1cscn1)N1CCOc2ccc(CN3CCC(Oc4cccnc4)CC3)cc2C1` the “activity, negative = inhibition” value was inactive: 5.29%. With `NC(=O)c1cccc(N)c1` the Potency was inconclusive [inhibitor, partial curve, poor fit]. For `CN1c2ccccc2-c2ccccc2S1(=O)=O`, the Potency was inconclusive [inhibitor, full curve]. With `COc1cccc(Cn2c(=O)cnc3cnc(Oc4cccc(Cl)c4)nc32)c1` the Potency was inconclusive [inhibitor, full curve]. In the case of `COC(=O)C1CCCCN1Cc1ccc2c(c1)CN(Cc1cn[nH]c1-c1ccc(F)cc1)CCO2` (stereo not drawn), the “activity, negative = inhibition” value is reported as inactive: -38.4%. For `N.N.N.N.N.N.N.N.N.N.N.N.N.N.O.O.[Ru+4].[Ru+5].[Ru+5]`, the Potency was inconclusive [inhibitor, partial curve, poor fit]. In the case of `O=C(c1ccncc1)N1CCC2(CC1)CN(c1ccncc1)C2`, the Potency is reported as inconclusive [inhibitor, partial curve]. With `Nc1ncnc2n[nH]c(Nc3ccc(F)cc3)c12` the Potency was inconclusive [inhibitor, single point]. With `COC(=O)c1c(OCc2ccccn2)cc(=O)n2c1CCN(Cc1ccc3c(c1)CCCN3C)CC2` the Potency was inconclusive [inhibitor, partial curve, poor fit]. With `O=S(=O)(O)CC(S)CS` (stereo not drawn) the Potency was inconclusive [inhibitor, partial curve]. `CN(C)CC/C=C1/c2ccccc2COc2ccc(CC(=O)O)cc21` was tested, and the Potency was inconclusive [inhibitor, single point]. `CC(C)(C)[C@H]1CCC(=O)N([C@H](CSc2ccc(Br)cc2)Cc2ccccc2)CC1` was tested, and the Potency was inconclusive [inhibitor, partial curve, poor fit]. With `CC(=O)N1CCC2(CC1)CCN(C(c1ccccc1)c1ccccc1)CC2` the “activity, negative = inhibition” value was inactive: -30%. In the case of `CO[C@H]1C[C@@H]2CC[C@@H](C)[C@@](O)(O2)C(=O)C(=O)N2CCCC[C@H]2C(=O)OC([C@H](C)C[C@@H]2CC[C@@H](O)[C@H](OC)C2)CC(=O)[C@H](C)/C=C(\C)[C@@H](O)[C@@H](OC)C(=O)[C@H](C)C[C@H](C)/C=C/C=C/C=C/1C` (stereo partly drawn), the Potency is reported as inconclusive [inhibitor, partial curve]. With `CCCCCCCCCC[n+]1cccc2cc(Br)ccc21` the Potency was inconclusive [inhibitor, partial curve, poor fit]. `NS(=O)(=O)c1cccc2c1c([N+](=O)[O-])cc1[nH]c(=O)c(=O)[nH]c12` was tested, and the activity, negative = inhibition was inconclusive: -40.9% [inhibitor]. For `COc1ccc(S(=O)(=O)N(CCO)c2ccccc2CN(C)C/C=C/c2ccc(Cl)cc2)cc1`, the Potency was inconclusive [inhibitor, partial curve, poor fit]. `CN(Cc1ccco1)c1ncnc2ccc(-c3ccoc3)cc12` was tested, and the Potency was active: 44.7 µM. In the case of `COCCNc1cc(-c2c(C)noc2C)ncn1`, the “activity, negative = inhibition” value is reported as inactive: -5.38%. `CN(C)c1ccc(-c2cncnc2Nc2ccccc2)cc1` was tested, and the Potency was inconclusive [inhibitor, partial curve, poor fit]. For `O=C(c1cc(C(F)(F)F)cc(C(F)(F)F)c1)N1CCC2(CCCN(c3ccccn3)C2)CC1`, the Potency was inconclusive [inhibitor, full curve, poor fit]. In the case of `CCCCCCCCCCCCCCCCSCC(COC)COP(=O)([O-])OCC[N+](C)(C)C` (stereo not drawn), the Potency is reported as inconclusive [inhibitor, single point]. `COc1cc(=O)n2c(c1C(=O)N(C)Cc1nonc1C)CCN(Cc1cccc(Cl)c1)CC2` was tested, and the “activity, negative = inhibition” value was inactive: -6.62%. For `CC(=O)N1CCC2(CCCN(Cc3ccccc3)C2)CC1`, the “activity, negative = inhibition” value was inactive: -10.6%. `CNC(=O)[C@H]1O[C@@H](n2cnc3c(NCc4cccc(I)c4)nc(Cl)nc32)[C@H](O)[C@@H]1O` was tested, and the Potency was inconclusive [inhibitor, partial curve, poor fit]. In the case of `O=S1(=O)CCOC[C@H](CC2CCCCC2)N1Cc1cccc(Cl)c1`, the Potency is reported as inconclusive [inhibitor, partial curve, poor fit]. For `O=C(CN1Cc2ccccc2OC(c2ccsc2)C1)N1CCN(Cc2ccc3c(c2)OCO3)CC1` (stereo not drawn), the Potency was active: 56.2 µM. For `COc1cccc2c1C(=O)CC(c1ccccc1)O2` (stereo not drawn), the Potency was inconclusive [inhibitor, partial curve, poor fit]. With `CC(C)(O)c1ccccc1CC[C@@H](SCC1(CC(=O)O)CC1)c1cccc(/C=C/c2ccc3ccc(Cl)cc3n2)c1` the Potency was inconclusive [inhibitor, partial curve]. With `CCO[C@H]1[C@H](NC(=O)c2cccnc2)c2ccccc2C12CCN(C(=O)c1ccoc1)CC2` the “activity, negative = inhibition” value was inactive: -0.378%. With `Cc1cccc2c(C(O)c3c[nH]c4c(C)cccc34)c[nH]c12` the Potency was inconclusive [inhibitor, full curve]. `CC1(C)CC[C@]2(C(=O)O)CC[C@]3(C)C(=CCC4[C@@]5(C)CC[C@H](O)C(C)(C)C5[C@H](O)C[C@]43C)C2C1` (stereo partly drawn) was tested, and the Potency was inconclusive [inhibitor, partial curve, poor fit]. In the case of `Cc1cccc(-c2cccc(C(=O)N3CCc4c(cnc(C)c4CNC(=O)c4cncs4)C3)c2)c1`, the Potency is reported as inconclusive [inhibitor, full curve]. `Cn1cc(-c2nc3cnc(N4CCNCC4)nc3n(CCC#N)c2=O)c2ccccc21` was tested, and the “activity, negative = inhibition” value was inactive: -18.2%.
